In all, about 48,000 compounds went through this assay and about 450 (0.94%) were called active. This list was built around the results that the source calls inconclusive (neither active nor inactive); the mix of calls is not that of the screen. Calls follow the shape of the dose curve; as a rule, active = well fitted inhibition curve with a large enough effect; inconclusive = small, poorly fitted or top-dose-only effect; inactive = no such curve, though single readings can be large or run the other way. Where the call is inconclusive, the potency comes from a doubtful curve fit.
experiment: Primary qHTS for Identification of Small Molecule Inhibitors of Huntingtin Promoter Activity; settings: HEK293 HTT promoter firefly luciferase reporter (activity 0% = vehicle and -100% = no light), 24 h; activity change, negative = inhibition: at 57.5 µM (top of the series); also: nearly all actives have a fitted effect of over 50% in size
In short: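 Quantitative HTS used concentration series of up to 57.5 uM final on HEK293 luciferase reporter cells, 24 h at 37 degrees C. Readout was Dual-Glo firefly luminescence.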
Potency is read from the fitted curve at half-maximal effect; tags tell the direction and shape of the fitted curve.

Row | Compound | Potency | activity change, negative = inhibition
1 | C[C@@H]1C[C@H]2[C@@H]3CCC4=CC(=O)C=C[C@]4(C)[C@@]3(Cl)[C@@H](O)C[C@]2(C)[C@@]1(OC(=O)c1ccco1)C(=O)CCl | inconclusive: 21.7 µM [inhibitor, partial curve] | 
2 | CCOC(=O)c1c(Nc2cccc(C(=O)OC)c2)nnc(-c2ccccc2)c1-c1ccccc1 | inconclusive: 39.8 µM [inhibitor, single point] | 
3 | CCOc1ccccc1-c1noc(CSc2nnc(-c3ccccc3)n2-c2cccc(C)c2)n1 | inconclusive: 31.6 µM [inhibitor, single point] | 
4 | COc1ccccc1C(=O)Nc1ccc(NC(=O)c2cccs2)cc1 | inconclusive: 28.2 µM [inhibitor, partial curve] | 
5 | COc1ccc(Nc2cc(C(=O)NCCCN(C)Cc3ccccc3)c3ccccc3n2)c(OC)c1 | inconclusive: 39.8 µM [inhibitor, single point] | 
6 | CCOc1ccc(S(=O)(=O)NCC(c2ccco2)S(=O)(=O)c2ccc(C)cc2)cc1 (stereo not given) | inconclusive: 31.6 µM [inhibitor, partial curve, poor fit] | 
7 | COc1ccc(CC(=O)NCCc2sc(-c3ccc(Cl)cc3)nc2C)cc1OC |  | inactive: -50.9%
8 | COc1ccccc1CNS(=O)(=O)c1ccc(-c2cc(C(F)(F)F)on2)s1 | inconclusive: 12.6 µM [inhibitor, single point] | 
9 | Cn1nc(-c2ccccc2F)c2cc(C(=O)NCc3ccc(Cl)cc3)sc21 | inconclusive: 31.6 µM [inhibitor, partial curve, poor fit] | 
10 | Cc1cccc(NS(=O)(=O)c2ccc3[nH]c(=O)[nH]c3c2)c1C |  | inactive: -15.8%
11 | N[C@H](C(=O)O)c1ccc(O)cc1 |  | inactive: -0.0269% [at 25.2 µM]
12 | CC(C)(C)C(=O)Nc1ccc(-c2nc3ccccc3s2)cc1 |  | inactive: -91%
13 | Cc1oc(-c2ccccc2)nc1Cn1c(SCc2cccc(C(F)(F)F)c2)nc2cccnc21 | inconclusive: 22.4 µM [inhibitor, single point] | 
14 | CCc1cnc2c(c1SCc1c(F)cccc1Cl)c(=O)n(C)c(=O)n2C | inconclusive: 22.4 µM [inhibitor, partial curve, poor fit] | 
15 | CCOC(=O)c1ccc(NC(=O)CC2C(=O)N(c3ccccc3)C(=O)N2Cc2ccc(C)cc2)cc1 (stereo not given) | inconclusive: 39.8 µM [inhibitor, single point] | 
16 | Cc1cc(C)cc(NC(=O)CSc2oc(-c3ccco3)nc2S(=O)(=O)c2ccccc2)c1 | inconclusive: 31.6 µM [inhibitor, single point] | 
17 | Cc1cccc(N2CCN(C(=O)c3ccc4c(c3)c(C)c(C)n4C)CC2)c1C |  | inactive: -4.34%
18 | O=c1oc2cc(O)ccc2s1 |  | inactive: -1.15%
19 | COc1ccc(CN(C)S(=O)(=O)c2nnc(NC(=O)C(C)C)s2)cc1OC | inconclusive: 14.1 µM [inhibitor, partial curve, poor fit] | 
20 | C=CCc1c(C)nc2nc(SCC(=O)Nc3cccc(Cl)c3)nn2c1C | inconclusive: 39.8 µM [inhibitor, single point] | 

Row | Compound | Potency | activity change, negative = inhibition
21 | CCOC(=O)c1c(C)oc2nc(C)nc(N(CC(C)C)CC(C)C)c12 | inconclusive: 31.6 µM [inhibitor, single point] | 
22 | CCc1ccc(NC(=O)c2ccc3c(=O)n4nc(Nc5ccccc5C)sc4nc3c2)cc1 | inconclusive: 39.8 µM [inhibitor, single point] | 
23 | CCCCCNC(=O)c1cc2c(=O)n3ccccc3nc2n1C |  | inactive: 70.9%
24 | COc1cccc(CN2CCc3nc(Nc4ccc5c(c4)OCCO5)ncc3C2)c1OC | inconclusive: 39.8 µM [inhibitor, single point] | 
25 | CCc1ccc(C2=C(C)C(N3CCC(C(=O)Nc4cccc(OC)c4)CC3)=NS2(=O)=O)cc1 |  | inactive: -31.8%
26 | CCOc1ccc(NC(=O)CSc2nc(-c3cccs3)cc(C(F)(F)F)c2C#N)cc1 |  | inactive: -4.1%
27 | CCOc1ccc(Nc2c(S(=O)(=O)c3ccc(C)cc3)cnc3cc(OC)c(OC)cc23)cc1 | inconclusive: 25.1 µM [inhibitor, partial curve, poor fit] | 
28 | COc1ccccc1NC(=O)CSC1=Nc2ccccc2C2=NC(CC(=O)NCCc3ccccc3)C(=O)N12 (stereo not given) |  | inactive: 0%
29 | COc1cccc2c1Oc1ncccc1N(c1ccc(C(=O)NCc3ccccc3C)s1)C2 | inconclusive: 35.5 µM [inhibitor, single point] | 
30 | CC1=C(c2ccc(C(C)C)cc2)S(=O)(=O)N=C1N1CCN(c2ccc(F)cc2)CC1 | inconclusive: 3.98 µM [inhibitor, partial curve, poor fit] | 
31 | Cc1ccc(Cl)cc1NC(=O)c1ccc(NC(=O)N2CCSc3ncccc32)cc1 | inconclusive: 11.2 µM [inhibitor, partial curve, poor fit] | 
32 | CC1=Nc2cc(C(=O)NC3CCCCC3)ccc2Sc2ccc(Cl)cc21 | inconclusive: 8.91 µM [inhibitor, full curve] | 
33 | CCc1ccc2nc(N(Cc3cccnc3)C(=O)c3ccc(C#N)cc3)sc2c1 | inconclusive: 39.8 µM [inhibitor, single point] | 
34 | Cc1ccc(N2CCN(C(=O)c3nn(C)c4c3CS(=O)(=O)c3ccccc3-4)CC2)c(C)c1 | inconclusive: 31.6 µM [inhibitor, partial curve, poor fit] | 
35 | CC(=O)Nc1ccc(NC(=O)c2oc3c(c2C)-c2nn(Cc4ccccc4Cl)cc2CC3)cc1 | inconclusive: 31.6 µM [inhibitor, single point] | 
36 | CCCCC(=O)Nc1ccc2nc(SCC(=O)N3CCc4ccccc43)sc2c1 | inconclusive: 31.6 µM [inhibitor, single point] | 
37 | CCOC(=O)c1ccc(NC(=O)Cn2nc3c4ccccc4n(Cc4cccc(F)c4)cc-3c2=O)cc1 |  | inactive: -3.4%
38 | Cc1ccc(Nc2ccc3cc(S(=O)(=O)N4CCC(C)CC4)ccc3n2)c(Cl)c1 | inconclusive: 20 µM [inhibitor, partial curve] | 
39 | Cc1cc(NC(=O)CCc2nc3cccnc3n2-c2ccccc2)ccc1Br | inconclusive: 35.5 µM [inhibitor, single point] | 
40 | COc1ccc(CC(=O)Nc2c(C(=O)N3CCN(c4ccccc4)CC3)oc3ccccc23)cc1OC | inconclusive: 31.6 µM [inhibitor, single point] | 

From PubChem BioAssay AID1508623 (National Center for Advancing Translational Sciences (NCATS), 2021)
